{"source": "the supplement of paper PMC11876631", "parents": {"B1": {"name": "lpxH; numbered along this chain (parent)", "chain": "MATLFIADLHLCVEEPAITAGFLRFLAGEARKADALYILGDLFEAWIGDDDPNPLHRKMAAAIKAVSDSGVPCYFIHGNRDFLLGKRFARESGMTLLPEEKVLELYGRRVLIMHGDTLCTDDAGYQAFRAKVHKPWLQTLFLALPLFVRKRIAARMRANSKEANSSKSLAIMDVNQNAVVSAMEKHQVQWLIHGHTHRPAVHELIANQQPAFRVVLGAWHTEGSMVKVTADDVELIHFPF"}, "B2": {"name": "pheS; numbered along this chain (parent)", "chain": "MSHLAELVASAKAAISQASDVAALDNVRVEYLGKKGHLTLQMTTLRELPPEERPAAGAVINEAKEQVQQALNARKAELESAALNARLAAETIDVSLPGRRIENGGLHPVTRTIDRIESFFGELGFTVATGPEIEDDYHNFDALNIPGHHPARADHDTFWFDTTRLLRTQTSGVQIRTMKAQQPPIRIIAPGRVYRNDYDQTHTPMFHQMEGLIVDTNISFTNLKGTLHDFLRNFFEEDLQIRFRPSYFPFTEPSAEVDVMGKNGKWLEVLGCGMVHPNVLRNVGIDPEVYSGFAFGMGMERLTMLRYGVTDLRSFFENDLRFLKQFK"}, "B3": {"name": "yqgF; numbered along this chain (parent)", "chain": "MSGTLLAFDFGTKSIGVAVGQRITGTARPLPAIKAQDGTPDWNIIERLLKEWQPDEIIVGLPLNMDGTEQPLTARARKFANRIHGRFGVEVKLHDERLSTVEARSGLFEQGGYRALNKGKVDSASAVIILESYFEQGY"}}, "note": "± gives the standard deviation of the averaged measurements. Laboratory Escherichia coli strains with one amino-acid change in an essential protein, pooled on minimal glucose agar with carbenicillin or gentamicin at twice the control MIC (plus kanamycin and chloramphenicol for the plasmids), 48 h. Fold change of barcode share against drug-free plates; higher = less susceptible. Active = above 20 in both replicates (the paper's putatively resistant). '<' = one read or none on drug, '>' = one read or none on a drug-free plate. Shares are relative, so most strains fall below 1 when a few take over. Listed are strains with at least 15 reads on both drug-free plates, and hits; most hits rest on fewer reference reads. Replicate rank correlation about 0.5. Edits are read from barcodes.", "data": [{"variants_of": "B1", "experiment": "barcode share on antibiotic plates over drug-free plates; higher = less susceptible", "details": "with Escherichia coli (laboratory strain); antibiotic: carbenicillin; 2× MIC (3.1 µg/mL)", "procedure": "(§1)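 A pool of E. coli strains, each edited to carry one amino-acid change in an essential protein, was grown for 48 h on minimal glucose agar with or without antibiotic; strain barcodes were sequenced; mean of two replicates.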", "values": [{"variant": "I112W", "fold change of barcode share": "0.274 ± 0.03"}, {"variant": "I112Q", "fold change of barcode share": "0.3 ± 0.1"}, {"variant": "I112P", "fold change of barcode share": "3.05 ± 3.5"}, {"variant": "L39D", "fold change of barcode share": "0.452 ± 0.3"}, {"variant": "L39A", "fold change of barcode share": "0.214 ± 0.081"}, {"variant": "L39Q", "fold change of barcode share": "0.217 ± 0.018"}, {"variant": "L39P", "fold change of barcode share": "0.257 ± 0.0049"}, {"variant": "L111W", "fold change of barcode share": "1.86 ± 0.23"}, {"variant": "L111A", "fold change of barcode share": "0.679 ± 0.51"}, {"variant": "L111P", "fold change of barcode share": "0.466 ± 0.037"}, {"variant": "L111Q", "fold change of barcode share": "0.277 ± 0.037"}, {"variant": "L111D", "fold change of barcode share": "0.414 ± 0.044"}, {"variant": "F75D", "fold change of barcode share": "0.319 ± 0.0032"}, {"variant": "F75A", "fold change of barcode share": "0.257 ± 0.096"}, {"variant": "F75W", "fold change of barcode share": "0.321 ± 0.17"}, {"variant": "F75Q", "fold change of barcode share": "0.213 ± 0.045"}, {"variant": "F75P", "fold change of barcode share": "0.614 ± 0.09"}, {"variant": "L216D", "fold change of barcode share": "0.307 ± 0.1"}, {"variant": "L216W", "fold change of barcode share": "0.29 ± 0.12"}, {"variant": "V215P", "fold change of barcode share": "0.355 ± 0.15"}, {"variant": "M113P", "fold change of barcode share": "0.432 ± 0.23"}, {"variant": "M113Q", "fold change of barcode share": "0.274 ± 0.1"}, {"variant": "M113W", "fold change of barcode share": "0.306 ± 0.008"}, {"variant": "M113A", "fold change of barcode share": "0.299 ± 0.0037"}]}, {"variants_of": "B1", "experiment": "barcode share on antibiotic plates over drug-free plates; higher = less susceptible", "details": "with Escherichia coli (laboratory strain); antibiotic: gentamicin; 2× MIC (MIC 0.45 µg/mL)", "procedure": "as §1", "values": [{"variant": "I112W", "fold change of barcode share": "0.0293 ± 0.03"}, {"variant": "I112Q", "fold change of barcode share": "< 0.0023"}, {"variant": "I112A", "fold change of barcode share": "0.00971 ± 0.0094"}, {"variant": "I112P", "fold change of barcode share": "0.00545 ± 0.0015"}, {"variant": "L39D", "fold change of barcode share": "< 0.00515"}, {"variant": "L39A", "fold change of barcode share": "< 0.00521"}, {"variant": "L39Q", "fold change of barcode share": "< 0.00465"}, {"variant": "L39P", "fold change of barcode share": "0.00708 ± 0.0018"}, {"variant": "L111W", "fold change of barcode share": "0.00631 ± 0.0018"}, {"variant": "L111A", "fold change of barcode share": "0.00675 ± 0.0068"}, {"variant": "L111P", "fold change of barcode share": "0.00858 ± 0.0012"}, {"variant": "L111Q", "fold change of barcode share": "0.00619 ± 0.0033"}, {"variant": "L111D", "fold change of barcode share": "0.00977 ± 0.0005"}, {"variant": "F75D", "fold change of barcode share": "0.00506 ± 0.0025"}, {"variant": "F75A", "fold change of barcode share": "0.00769 ± 0.0083"}, {"variant": "F75W", "fold change of barcode share": "0.00517 ± 0.0045"}, {"variant": "F75Q", "fold change of barcode share": "0.00375 ± 0.0026"}, {"variant": "F75P", "fold change of barcode share": "< 0.00443"}, {"variant": "L216Q", "fold change of barcode share": "< 0.0157"}, {"variant": "L216A", "fold change of barcode share": "< 0.0151"}, {"variant": "L216D", "fold change of barcode share": "0.0181 ± 0.011"}, {"variant": "V215P", "fold change of barcode share": "0.00554 ± 0.0029"}, {"variant": "V215D", "fold change of barcode share": "< 0.00187"}, {"variant": "V215A", "fold change of barcode share": "0.00341 ± 0.0019"}, {"variant": "M113P", "fold change of barcode share": "0.00526 ± 0.0029"}, {"variant": "M113Q", "fold change of barcode share": "0.00688 ± 0.0049"}, {"variant": "M113W", "fold change of barcode share": "< 0.00787"}, {"variant": "M113D", "fold change of barcode share": "< 0.00409"}, {"variant": "M113A", "fold change of barcode share": "< 0.00474"}]}, {"variants_of": "B2", "experiment": "barcode share on antibiotic plates over drug-free plates; higher = less susceptible", "details": "with Escherichia coli (laboratory strain); antibiotic: carbenicillin; 2× MIC (3.1 µg/mL)", "procedure": "as §1", "values": [{"variant": "I113Q", "fold change of barcode share": "0.282 ± 0.13"}, {"variant": "I113D", "fold change of barcode share": "0.3691 ± 0.0036"}, {"variant": "I113P", "fold change of barcode share": "0.239 ± 0.051"}, {"variant": "I113W", "fold change of barcode share": "0.212 ± 0.02"}, {"variant": "I113A", "fold change of barcode share": "0.206 ± 0.028"}, {"variant": "L305P", "fold change of barcode share": "0.243 ± 0.021"}, {"variant": "L305W", "fold change of barcode share": "0.246 ± 0.0057"}, {"variant": "L305Q", "fold change of barcode share": "0.288 ± 0.3"}, {"variant": "L305A", "fold change of barcode share": "0.157 ± 0.18"}, {"variant": "L305D", "fold change of barcode share": "0.253 ± 0.16"}, {"variant": "F119P", "fold change of barcode share": "0.33 ± 0.014"}, {"variant": "F119W", "fold change of barcode share": "0.392 ± 0.25"}, {"variant": "F119A", "fold change of barcode share": "0.271 ± 0.018"}, {"variant": "F119D", "fold change of barcode share": "0.386 ± 0.23"}, {"variant": "F119Q", "fold change of barcode share": "0.282 ± 0.12"}, {"variant": "I116P", "fold change of barcode share": "0.23 ± 0.029"}, {"variant": "I116A", "fold change of barcode share": "0.344 ± 0.17"}, {"variant": "I116D", "fold change of barcode share": "0.304 ± 0.068"}, {"variant": "I116Q", "fold change of barcode share": "0.38 ± 0.15"}, {"variant": "I116W", "fold change of barcode share": "0.305 ± 0.076"}]}, {"variants_of": "B2", "experiment": "barcode share on antibiotic plates over drug-free plates; higher = less susceptible", "details": "with Escherichia coli (laboratory strain); antibiotic: gentamicin; 2× MIC (MIC 0.45 µg/mL)", "procedure": "as §1", "values": [{"variant": "I113Q", "fold change of barcode share": "0.0088 ± 0.0053"}, {"variant": "I113D", "fold change of barcode share": "0.00529 ± 0.0032"}, {"variant": "I113P", "fold change of barcode share": "0.00678 ± 0.00027"}, {"variant": "I113W", "fold change of barcode share": "0.00487 ± 0.0022"}, {"variant": "I113A", "fold change of barcode share": "0.00513 ± 0.0019"}, {"variant": "L305P", "fold change of barcode share": "< 0.01"}, {"variant": "L305W", "fold change of barcode share": "< 0.00625"}, {"variant": "L305Q", "fold change of barcode share": "< 0.0147"}, {"variant": "L305A", "fold change of barcode share": "< 0.0153"}, {"variant": "L305D", "fold change of barcode share": "0.0181 ± 0.013"}, {"variant": "F119P", "fold change of barcode share": "< 0.00891"}, {"variant": "F119A", "fold change of barcode share": "< 0.00833"}, {"variant": "F119D", "fold change of barcode share": "0.0101 ± 0.0029"}, {"variant": "F119Q", "fold change of barcode share": "< 0.0112"}, {"variant": "I116P", "fold change of barcode share": "0.00746 ± 0.0062"}, {"variant": "I116A", "fold change of barcode share": "< 0.00719"}, {"variant": "I116D", "fold change of barcode share": "< 0.0102"}, {"variant": "I116Q", "fold change of barcode share": "< 0.00512"}, {"variant": "I116W", "fold change of barcode share": "< 0.00988"}]}, {"variants_of": "B3", "experiment": "barcode share on antibiotic plates over drug-free plates; higher = less susceptible", "details": "with Escherichia coli (laboratory strain); antibiotic: carbenicillin; 2× MIC (3.1 µg/mL)", "procedure": "as §1", "values": [{"variant": "V19W", "fold change of barcode share": "0.307 ± 0.1"}, {"variant": "V19Q", "fold change of barcode share": "0.65 ± 0.27"}, {"variant": "V19A", "fold change of barcode share": "0.251 ± 0.18"}, {"variant": "V17D", "fold change of barcode share": "0.442 ± 0.024"}, {"variant": "V17P", "fold change of barcode share": "0.227 ± 0.0063"}, {"variant": "V17W", "fold change of barcode share": "0.292 ± 0.11"}, {"variant": "V17Q", "fold change of barcode share": "0.327 ± 0.085"}]}, {"variants_of": "B3", "experiment": "barcode share on antibiotic plates over drug-free plates; higher = less susceptible", "details": "with Escherichia coli (laboratory strain); antibiotic: gentamicin; 2× MIC (MIC 0.45 µg/mL)", "procedure": "as §1", "values": [{"variant": "V19W", "fold change of barcode share": "0.00704 ± 0.0041"}, {"variant": "V19Q", "fold change of barcode share": "0.0121 ± 0.0086"}, {"variant": "V19A", "fold change of barcode share": "< 0.00812"}, {"variant": "V17D", "fold change of barcode share": "0.0344 ± 0.023"}, {"variant": "V17P", "fold change of barcode share": "0.0133 ± 0.0094"}, {"variant": "V17W", "fold change of barcode share": "0.00323 ± 0.0021"}, {"variant": "V17Q", "fold change of barcode share": "< 0.00295"}]}]}
